# Test results: PubChem BioAssay (Tox21)
# “And” between values parts separate entries of the source, which are not always exact repeats. Identical values can stand only once. Inconclusive results, whose numbers are uncertain, are shown with a selection of clear calls. For part of these data: Potencies of inconclusive entries are left out as doubtful fits. The source made the active and inactive calls. Unless noted, the call rests on the fitted dose curve; in most records, active means well fitted curve in the direction sought with a large enough effect in the repeat runs; inconclusive means weak or mixed curves; inactive means no such curve, though single readings can be large; an effect the other way counts as inactive or inconclusive.
# How the values were obtained:
# [1] = biological target: Bile acid receptor (Homo sapiens) (UniProt Q96RI1); assay: qHTS assay to identify small molecule antagonists of the farnesoid-X-receptor (FXR) signaling pathway (AID 743217; active means well fitted inhibition curve with a large enough effect in the signal ratio in the repeat runs, not every such curve was filed as active; inconclusive means weak or mixed curves, or effect the other way; inactive means no such curve, though single readings can be large or run the other way; the % refers to the signal ratio; further: on the % scale 0 is the no-effect control and ±100 the full control effect); conditions: HEK293T FXR-UAS-bla, beta-lactamase ratio, CDCA-stimulated, 16 h; activity change, negative = inhibition: at 62.6 µM (top of the series) unless noted
# Sequence of UniProt Q96RI1 (Q96RI1 whole entry, looked up): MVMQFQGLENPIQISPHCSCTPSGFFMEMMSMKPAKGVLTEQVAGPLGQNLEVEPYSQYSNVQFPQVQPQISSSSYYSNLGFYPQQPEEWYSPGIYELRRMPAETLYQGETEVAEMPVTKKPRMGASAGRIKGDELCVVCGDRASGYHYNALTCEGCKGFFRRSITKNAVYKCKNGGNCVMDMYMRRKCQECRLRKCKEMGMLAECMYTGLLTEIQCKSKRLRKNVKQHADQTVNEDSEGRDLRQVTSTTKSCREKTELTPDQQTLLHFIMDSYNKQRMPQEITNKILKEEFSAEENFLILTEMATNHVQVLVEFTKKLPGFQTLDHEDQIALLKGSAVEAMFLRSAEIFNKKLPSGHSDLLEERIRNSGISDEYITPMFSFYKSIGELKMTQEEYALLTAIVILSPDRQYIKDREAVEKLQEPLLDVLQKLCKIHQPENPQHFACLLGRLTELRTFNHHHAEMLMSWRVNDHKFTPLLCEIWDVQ
# In short: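 FRET fluorescence after 2 h room-temperature LiveBLAzer loading gives the readout. Prior step: FXR-bla HEK 293T cells, seeded and incubated 5 h, received test compounds plus 50 uM final CDCA for 16 h at 37 °C.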
# [2] = biological target: Nuclear receptor subfamily 1 group I member 3 (Homo sapiens) (UniProt Q14994); assay: qHTS assay to identify small molecule agonists of the constitutive androstane receptor (CAR) signaling pathway (AID 1224839); further: potency means the concentration at half of the fitted maximal effect; nearly all actives have a fitted effect of over 15% in size
# Sequence of UniProt Q14994 (Q14994 whole entry, looked up): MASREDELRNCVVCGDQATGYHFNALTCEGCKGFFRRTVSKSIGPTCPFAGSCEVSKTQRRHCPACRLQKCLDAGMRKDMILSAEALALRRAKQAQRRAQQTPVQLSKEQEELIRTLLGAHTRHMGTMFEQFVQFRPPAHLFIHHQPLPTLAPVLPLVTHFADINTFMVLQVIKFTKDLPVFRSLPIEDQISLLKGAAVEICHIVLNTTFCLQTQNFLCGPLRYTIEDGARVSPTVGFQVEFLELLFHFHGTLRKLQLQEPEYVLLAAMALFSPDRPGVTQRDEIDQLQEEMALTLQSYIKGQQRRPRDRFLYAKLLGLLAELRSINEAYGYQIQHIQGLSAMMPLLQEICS
# In short: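 Cells were plated and incubated 4 hrs, then dosed with compounds at 15 concentrations. PK11195 was added to 0.75 uM final. After 24 hrs at 37 C, luciferase luminescence was measured.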
# [3] = qHTS assay to identify small molecule antagonists of the androgen receptor (AR) signaling pathway using the MDA cell line - cell viability counter screen (AID 743041; further: potency means the concentration at half of the fitted maximal effect; nearly all actives have a fitted effect of over 45% in size); conditions: MDA-kb2 viability, CellTiter-Fluor, 16 h, cells co-treated with R1881 androgen agonist; viability change, negative = cytotoxic: at 70.3 µM (top of the series)
# In short: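 Using the breast carcinoma line MDA-kb2 AR-luc, test chemicals were co-incubated with R1881 for 16 h; CellTiter-Fluor reagent, added at 15.5 h, provided a fluorescence measure of live cells.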
# [4] = qHTS assay for small molecule disruptors of the mitochondrial membrane potential - cell viability (AID 720634; calls by dose curve; further: potency means the concentration at half of the fitted maximal effect; nearly all actives have a fitted effect of over 20% in size)
# In short: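 Same-well counter-screen: following the MMP dye addition, CellTiter-Glo was added to 1 hr compound-treated HepG2 cells and luminescence read after 30 min at room temperature.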
# Aromatase (Homo sapiens) = Aromatase (Homo sapiens) (UniProt P11511); assay: qHTS assay to identify aromatase inhibitors (AID 743083); further: potency means the concentration at half of the fitted maximal effect; nearly all actives have a fitted effect of over 55% in size
# Sequence of UniProt P11511 (P11511 whole entry, looked up): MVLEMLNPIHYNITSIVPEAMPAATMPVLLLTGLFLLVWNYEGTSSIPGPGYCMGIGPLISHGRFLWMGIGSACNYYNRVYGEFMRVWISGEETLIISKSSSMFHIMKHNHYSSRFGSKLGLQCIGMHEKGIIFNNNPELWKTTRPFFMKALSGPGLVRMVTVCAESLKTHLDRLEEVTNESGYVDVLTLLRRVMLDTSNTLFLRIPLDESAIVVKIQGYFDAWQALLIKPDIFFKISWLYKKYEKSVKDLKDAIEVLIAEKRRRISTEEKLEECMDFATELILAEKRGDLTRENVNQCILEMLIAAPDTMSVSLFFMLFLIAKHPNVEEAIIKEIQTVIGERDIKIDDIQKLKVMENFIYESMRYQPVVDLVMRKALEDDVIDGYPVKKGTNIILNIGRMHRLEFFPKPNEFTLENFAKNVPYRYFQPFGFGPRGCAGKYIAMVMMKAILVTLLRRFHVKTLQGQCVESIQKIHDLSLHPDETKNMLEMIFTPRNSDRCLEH
# [5] = biological target: Androgen receptor (Homo sapiens) (UniProt P10275); assay: qHTS assay to identify small molecule antagonists of the androgen receptor (AR) signaling pathway using the MDA cell line in the presence of 0.5 nM R1881 (AID 1259243); further: potency means the concentration at half of the fitted maximal effect; nearly all actives have a fitted effect of over 50% in size
# Sequence of UniProt P10275 (P10275 whole entry, looked up): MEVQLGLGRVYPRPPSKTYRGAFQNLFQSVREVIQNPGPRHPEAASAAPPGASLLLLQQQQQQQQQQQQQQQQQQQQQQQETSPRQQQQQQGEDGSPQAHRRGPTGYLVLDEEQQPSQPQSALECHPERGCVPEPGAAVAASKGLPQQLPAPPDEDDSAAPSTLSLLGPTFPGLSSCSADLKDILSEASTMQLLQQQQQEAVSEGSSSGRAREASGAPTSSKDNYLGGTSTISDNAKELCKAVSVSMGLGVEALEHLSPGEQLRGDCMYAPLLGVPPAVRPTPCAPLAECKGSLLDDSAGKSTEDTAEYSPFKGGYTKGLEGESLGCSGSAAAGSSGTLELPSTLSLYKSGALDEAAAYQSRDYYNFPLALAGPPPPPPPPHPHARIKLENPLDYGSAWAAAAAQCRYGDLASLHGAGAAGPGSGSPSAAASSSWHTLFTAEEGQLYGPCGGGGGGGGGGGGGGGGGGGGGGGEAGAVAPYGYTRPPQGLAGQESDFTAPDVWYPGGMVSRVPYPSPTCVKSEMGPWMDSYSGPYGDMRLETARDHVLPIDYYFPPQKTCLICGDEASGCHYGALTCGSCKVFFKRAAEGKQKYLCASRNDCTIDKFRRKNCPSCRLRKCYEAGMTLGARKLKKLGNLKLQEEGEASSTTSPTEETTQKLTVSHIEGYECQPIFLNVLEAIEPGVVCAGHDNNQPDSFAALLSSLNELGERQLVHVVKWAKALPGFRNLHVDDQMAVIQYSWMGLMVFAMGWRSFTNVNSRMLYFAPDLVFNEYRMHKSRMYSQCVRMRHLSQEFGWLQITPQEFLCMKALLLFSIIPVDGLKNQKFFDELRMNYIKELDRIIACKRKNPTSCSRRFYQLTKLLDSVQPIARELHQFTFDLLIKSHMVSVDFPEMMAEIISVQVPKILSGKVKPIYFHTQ
# In short: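 Cells: MDA-kb2 (MMTV-luc). Stimulus: 0.5 nM R1881. Time: 16 hr, 37C, no CO2. Detection: ONE-Glo luminescence after 30 min at RT.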
# [6] = qHTS RealTime-Glo MT Cell Viability Assay in HEK293 cells - 0 hour (AID 1224880); further: nearly all actives have a fitted effect of over 45% in size; further: potency means the concentration at half of the fitted maximal effect
# In short: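 Measured as luminescence from the same continuously cultured HEK293 wells at successive time points (0, 8, 16, 24, 32, 40 h) after compound addition. Reagent present from seeding; dosing at 5 h; incubation 37 C.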
# [7] = qHTS assay to identify small molecule phospholipidosis (PLD) inducers (AID 1259344; active means well fitted curve in the direction sought with a large enough effect; inconclusive means small, poorly fitted or top-dose-only effect, or another doubt; inactive means no such curve, though single readings can be large; an effect the other way counts as inactive or inconclusive; further: potency means the concentration at half of the fitted maximal effect)
# In short: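 Accumulated phospholipid, stained red by LipidTOX during 24 h compound treatment of HepG2 cells at 37 C, is quantified from images as pit number and intensity, normalised per cell using Hoechst-stained nuclei.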
# [8] = qHTS assay to identify small molecule that activate the aryl hydrocarbon receptor (AhR) signaling pathway - cell viability counter screen (AID 743086); further: potency means the concentration at half of the fitted maximal effect; nearly all actives have a fitted effect of over 45% in size
# In short: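 Cytotoxicity counter screen: CellTiter-Fluor signal (30 min, 37 C) in 4000 HepG2 cells/well carrying the DRE-luciferase reporter, following 24 h compound exposure at 37 C.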
# [9] = qHTS assay to identify small molecule agonists of the constitutive androstane receptor (CAR) signaling pathway - cell viability counter screen (AID 1224836); further: nearly all actives have a fitted effect of over 45% in size; further: potency means the concentration at half of the fitted maximal effect; on viability change, negative = cytotoxic: on the % scale 0 is the no-effect control and ±100 the full control effect
# In short: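 Cells were seeded and incubated 4 hrs. Compounds were added across 15 concentrations together with PK11195 at 0.75 uM final. Plates were incubated 23 hrs at 37 C. CellTiter-Fluor was added and fluorescence measured.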
# [10] = qHTS assay to identify small molecule antagonists of the estrogen related receptor (ERR) signaling pathway from Tox21 library (AID 1224848); further: nearly all actives have a fitted effect of over 50% in size; further: potency means the concentration at half of the fitted maximal effect
# In short: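 ERR cell line, 2,000 cells/well. 6 h settle, then compound (DMSO) added; 18 h at 37 C; ONE-Glo luminescence after 30 min RT.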
# [11] = A CellTox Green Cytotoxicity Assay to monitor cytotoxicity in HEK293 cells - 0 hour (AID 1224869); further: potency means the concentration at half of the fitted maximal effect; nearly all actives have a fitted effect of over 50% in size
# In short: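 Homogeneous no-lysis format: HEK293 cell suspension mixed with CellTox Green reagent, seeded, incubated 5 h at 37 C/5% CO2, then dosed by pintool with compound in DMSO.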
# [12] = biological target: Acetylcholinesterase (Homo sapiens) (UniProt P22303); assay: Acetylcholinesterase (AChE) small molecule antagonists: enzyme-based qHTS assay (AID 1347397; calls by dose curve; further: on the % scale 0 is the no-effect control and ±100 the full control effect; nearly all actives have a fitted effect of over 55% in size); conditions: Potency: AChE enzyme activity inhibition; outcome: AChE enzyme activity inhibition
# Sequence of UniProt P22303 (P22303 whole entry, looked up): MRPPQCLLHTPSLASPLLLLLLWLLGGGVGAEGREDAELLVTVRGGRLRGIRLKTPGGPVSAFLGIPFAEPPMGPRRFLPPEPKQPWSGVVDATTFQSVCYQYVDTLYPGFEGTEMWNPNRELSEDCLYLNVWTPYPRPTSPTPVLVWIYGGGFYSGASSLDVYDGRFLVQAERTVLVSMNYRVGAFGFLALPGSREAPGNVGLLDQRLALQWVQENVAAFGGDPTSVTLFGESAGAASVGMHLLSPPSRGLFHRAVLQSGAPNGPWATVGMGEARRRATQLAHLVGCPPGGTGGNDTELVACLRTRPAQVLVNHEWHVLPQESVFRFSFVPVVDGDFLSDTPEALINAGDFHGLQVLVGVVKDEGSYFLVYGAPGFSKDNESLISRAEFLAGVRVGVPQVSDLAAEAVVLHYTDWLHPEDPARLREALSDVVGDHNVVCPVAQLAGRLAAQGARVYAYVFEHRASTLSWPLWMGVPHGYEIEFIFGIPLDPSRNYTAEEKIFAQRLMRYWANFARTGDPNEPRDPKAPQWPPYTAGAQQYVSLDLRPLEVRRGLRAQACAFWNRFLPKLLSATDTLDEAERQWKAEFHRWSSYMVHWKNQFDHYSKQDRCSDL
# In short: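 First, recombinant human AChE (50 mU/mL as dispensed) received test compound or DMSO. Second, plates stood 30 min at room temperature. Third, DTNB and acetylthiocholine were added, followed by 10 min at room temperature and colorimetric detection.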
# [13] = qHTS assay to identify small molecule agonists of the TGF-beta/Smad signaling pathway - cell viability counter screen (AID 1346829)
# In short: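 CellTiter-Glo luminescence readout; SBE-bla HEK 293T cells, overnight plating, compound 5 hr at 37 C/5% CO2, then bla substrate 2 hr RT, then CellTiter-Glo 30 min RT.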
# [14] = qHTS RealTime-Glo MT Cell Viability Assay in HepG2 cells - 40 hour (AID 1224870); further: potency means the concentration at half of the fitted maximal effect; nearly all actives have a fitted effect of over 50% in size
# In short: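 Real-time viability: cells seeded at 600 per well together with NanoLuc and cell-permeant prosubstrate, compounds added after 5 h incubation. Luminescence tracked at 0, 8, 16, 24, 32 and 40 h of exposure.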
# [15] = system: thyroid hormone receptor (rat, GH3 cells); assay: qHTS assay to identify small molecule agonists of the thyroid receptor (TR) signaling pathway (AID 743066; calls by dose curve; further: on the % scale 0 is the no-effect control and ±100 the full control effect); conditions: GH3.TRE-Luc cells, TR agonist luciferase, 24 h; activation: at 83.9 µM (top of the series) unless noted
# [16] = qHTS RealTime-Glo MT Cell Viability Assay in HepG2 cells - 24 hour (AID 1224867)
# In short: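 HepG2 cells were seeded at 600 cells/well together with NanoLuc luciferase and a cell-permeant prosubstrate, preincubated 5 h at 37 C/5% CO2, then pin-dosed with compounds in DMSO. Nonlytic luminescence from viable cells was read at each time point.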
# [17] = qHTS assay to identify small molecule agonists or antagonists of the thyroid stimulating hormone receptor (TSHR) signaling pathway - wild type cell line counter screen (AID 1259384; calls by dose curve; further: on the % scale 0 is the no-effect control and ±100 the full control effect); conditions: HEK293 wild type, cAMP HTRF counter-screen; at 42.5 µM (top of the series); stronger effect = higher value
# In short: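 Counter screen in untransfected Hek293: compounds (15-point titration, triplicate) plus phosphodiesterase inhibitor Ro20-1724 added after 18 h plating; 30 min RT. Intracellular cAMP via competitive d2/cryptate immunoassay, 1 h incubation.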
# [18] = biological target: Estrogen receptor (Homo sapiens) (UniProt P03372); assay: qHTS assay to identify small molecule antagonists of the estrogen receptor alpha (ER-alpha) signaling pathway using the BG1 cell line in the presence of 0.1 nM 17-beta-estradiol (AID 1259244)
# Sequence of UniProt P03372 (P03372 whole entry, looked up): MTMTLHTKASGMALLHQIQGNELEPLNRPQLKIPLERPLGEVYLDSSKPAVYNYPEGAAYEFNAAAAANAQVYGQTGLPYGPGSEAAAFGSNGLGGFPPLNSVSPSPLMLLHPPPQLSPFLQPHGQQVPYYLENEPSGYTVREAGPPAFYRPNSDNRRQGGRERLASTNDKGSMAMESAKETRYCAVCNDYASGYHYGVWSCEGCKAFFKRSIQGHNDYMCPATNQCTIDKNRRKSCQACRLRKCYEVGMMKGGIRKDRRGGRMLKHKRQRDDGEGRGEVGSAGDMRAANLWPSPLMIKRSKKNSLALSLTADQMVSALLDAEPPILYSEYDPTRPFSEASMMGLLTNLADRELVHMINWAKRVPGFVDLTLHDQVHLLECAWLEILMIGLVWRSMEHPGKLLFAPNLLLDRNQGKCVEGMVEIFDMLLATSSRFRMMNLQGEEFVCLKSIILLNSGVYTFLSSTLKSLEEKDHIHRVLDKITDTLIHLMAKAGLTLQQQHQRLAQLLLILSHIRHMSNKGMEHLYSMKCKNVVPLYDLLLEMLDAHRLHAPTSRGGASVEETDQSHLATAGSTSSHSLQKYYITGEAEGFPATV
# In short: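 Seeding of stripped-serum-adapted VM7Luc4E2 cells, 24 h attachment, compound transfer, then 0.1 nM final 17beta-estradiol; after 22 h incubation, ONE-Glo reagent and luminescence reading.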
# [19] = qHTS assay to identify small molecule HDAC inhibitors (AID 1259364)
# In short: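 After a 2 hr compound incubation (37C, 5% CO2), HCT-116 cells seeded at 1,500/well the day before received HDAC-Glo reagent; signal read as luminescence after 30 min at room temperature.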
# Tags describe the fitted curve by direction and shape.
structure (smiles),measurement,setting,value
CCOC(=O)C(Cl)Cc1cc(-n2nc(C)n(C(F)F)c2=O)c(F)cc1Cl (centres undefined),"activity change, negative = inhibition",[1],inconclusive: -5.5%
same,Potency,[2],inconclusive [activator]
CCCSC(=O)N(CCC)CCC,Potency,[3],"inconclusive [rising, partial curve, poor fit]"
Cc1ccccc1CO[C@@H]1C[C@@]2(C(C)C)CC[C@]1(C)O2,Potency,[4],"inconclusive [cytotoxic, partial curve, poor fit]"
same,Potency,Aromatase (Homo sapiens),"inconclusive [inhibitor, partial curve, poor fit]"
same,Potency,[5],inconclusive [inhibitor]
CCc1ccc(C2CCNCC2)cc1,Potency,[6],"inconclusive [rising, single point]"
C[C@]1(O)CC[C@H]2[C@@H]3CCC4=CC(=O)CC[C@]4(C)[C@@]3(F)[C@@H](O)C[C@@]21C,Potency,[6],"inconclusive [falling, single point]"
same,Potency,[7],"inconclusive [activator, partial curve, poor fit]"
CN1CCN(C(=O)O[C@H]2c3nccnc3C(=O)N2c2ccc(Cl)cn2)CC1,Potency,[1],inactive
CCOC(=O)CC(SP(=O)(OC)OC)C(=O)OCC (centres undefined),Potency,[2],"inconclusive [activator, partial curve, poor fit]"
same,Potency,[6],inactive
Cc1ccc2cc(C)ccc2c1,Potency,[8],"inconclusive [rising, partial curve, poor fit]"
O=C1Nc2ccc(Cl)cc2C(c2ccccc2)=NC1O (centres undefined),Potency,[9],inactive
same,Potency,[10],"inconclusive [inhibitor, partial curve, poor fit]"
C=C(C)C(=O)OCC(CC)CCCC (centres undefined),Potency,[11],"inconclusive [activator, single point]"
CC1CC(=O)O1 (centres undefined),Potency,[12],inactive
CCOP(=S)(OCC)SCCl,Potency,Aromatase (Homo sapiens),"inconclusive [inhibitor, single point]"
CC(=O)CN(CC(C)=O)N=O,Potency,[9],inactive
CCC(C)(C)c1cc(-n2nc3ccccc3n2)c(O)c(C(C)(C)CC)c1,Potency,[9],"inconclusive [cytotoxic, partial curve]"
CN(C)C(=O)Cl,Potency,[13],inactive
CC(C)[N+](C)(CCC(C(N)=O)(c1ccccc1)c1ccccc1)C(C)C,Potency,[10],inactive
same,Potency,[14],active: 19 µM
O=C(Cl)c1ccc(Cl)cc1,Potency,[14],"inconclusive [rising, partial curve, poor fit]"
COP(=S)(OC)Oc1ccc(S(=O)(=O)N(C)C)cc1,Potency,[15],inactive
same,Potency,[10],"inconclusive [inhibitor, partial curve] and inactive"
same,Potency,[16],inactive
same,Potency,[5],"inconclusive [inhibitor, single point]"
NC(=O)c1cc([N+](=O)[O-])cc([N+](=O)[O-])c1,Potency,[7],inactive
CCN[C@H](C)Cc1cccc(C(F)(F)F)c1,Potency,[8],"inconclusive [falling, partial curve, poor fit]"
CC(CC(C(N)=O)(c1ccccc1)c1ccccc1)N(C)C (centres undefined),cAMP activity change,[17],inactive: 3.43%
CCCOC(=O)c1cncn1C(C)c1ccccc1 (centres undefined),Potency,[2],"inconclusive [activator, partial curve]"
same,Potency,[18],inactive
CCOC(=O)/C=C(C)/C=C/C[C@@H](C)CCCC(C)C,activation,[15],inconclusive: 2.91% [activator] and inconclusive: -7.57% [phenotype inactive]
C[C@]12CC[C@H]3[C@@H](CCC4=CC(=O)CC[C@@H]43)[C@@H]1CC[C@@H]2O,Potency,[7],"inconclusive [activator, single point] and inactive"
COCC(=O)N(c1c(C)cccc1C)C(C)C(=O)OC (centres undefined),Potency,[16],inactive
[O-][Br+2]([O-])O,Potency,[3],"inconclusive [cytotoxic, partial curve]"
CCNP(=S)(OC)O/C(C)=C/C(=O)OC(C)C (centres undefined),Potency,[3],"inconclusive [rising, partial curve, poor fit]"
same,Potency,[19],"inconclusive [inhibitor, partial curve, poor fit]"
